Data from a collection of fitness landscapes (doi:10.1016/j.celrep.2020.107928).
The full ranking holds about 81,000 sequences; the median of “one-hybrid fitness for binding NBS DNA” is about -0.1, and the highest 2% start at about 0.36. This is one part of the list.

B1: Caulobacter ParB omega fusion; a variant is named by its letters at X, in order, B8GW30 (parent)
chain: MESVVVGEPGMSEGRRGLGRGLSALLGEVDAAPAQAPGEQLGGSREAPIEILQRNPDQPRRTFREEDLEDLSNSIREKGVLQPILVRPSPDTAGEYQIVAGERAWRAAQRAGLKTVPIMVRELDDLAVLEIGIIENVQRADLNVLEEALSYKVLMEKFERTQENIAQTIGKSXSHVANXMRLLXLPDEVQSYLVSGELTAXHARAIAAAADPVALAKQIIEGGLSVRETEALARKAPNLSAGKSKGGRPPRVKDTDTQALESDLSSVLGLDVSIDHRGSTGTLTITYATLEQLDDLCNRLTRGI

Variants of: B1
Assay: one-hybrid fitness for binding NBS DNA (the Noc-binding site; scaled: cognate 1, non-cognate 0); higher = stronger binding
Conditions: with NBS DNA site
Procedure, shortened: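 Values were rescaled so that cognate is 1 and non-cognate is 0. Each is a fitness, the log change in a variant's read ratio to wild type from Illumina reads of plasmids before and after selection, with three replicate libraries pooled and variants under 10 reads dropped. Selection of the Caulobacter ParB libraries, four specificity codons randomised, used E. coli USO with a HIS3 reporter, site 19 bp from the promoter, on M9-minus-histidine with 0.1 mM IPTG and 5 mM 3-AT for 48 hours at 37°C.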

one-hybrid fitness for binding NBS DNA, 0.28:
QTCY

one-hybrid fitness for binding NBS DNA, 0.219:
QQGY

one-hybrid fitness for binding NBS DNA, 0.305:
RSMT

one-hybrid fitness for binding NBS DNA, ≤ 0.2:
RKIV
WVST
SACQ
VSHQ
YNEP
HATR
SPML
YIKE
PMNN
GAID
KHHR
CAQR
WYYF
WGRG
LAPC
RIFM
RWRH
YPVD
QNVI
AGNM
WWTF
DPHR
CPAC
HNGS
PPKW
EKGY
HTYC
TPPI
WICV
QTIN
EMVW
CTML
SLKT
LQNN
LAHV
PCLV
HLTV
GREC
LQPF
MTYS
TISQ
PEHI
WRAH
ETPG
HASN
PYKS
ASFN
RAPL
LPSK
MTDY
PIPF
DPTF
AQDE
SCIC
AYPA
AEPL
SLEI
KNDT
DPAA
GTTA
FLDN
FSNG
KKCC
SLAF
RKCD
NIPP
PRLS
DYFD
WNCG
NYVC
TGRI
HIAR
PEFN
DVHM
LVSV
RSFW
PDCT
LYWF
SFVG
CENS
IRKK
MCYR
SLYE
GIPR
AIMP
NRLD
LDAR
SMKT
RFIA
SNSY
RRPK
PQFK
KQLS
LFNV
LRVQ
LIKC
RRAL
WCKG
MTEF
RYSK
KFTF
VINF
KRAW
SETV
TADY
VCGG
DINN
LRPY
NHHR
QHTC
EAYC
CVHG
DRVC
QPQK
RWSD
DSHM
LNNN
YMQC
VLST
STMM
FQVG
LANT
MKQG
FAIL
LHII
DRDR
WKML
IVDT
YDYG
IRHV
GTSS
CNSR
GPET
FVAT
TNMM
DVLM
NRVF
GNSI
EGSV
MRRH
PGDI
QIQL
ETIW
TADG
SVHW
ASSP
YSHS
RKQW
TNPM
WSQF
RSEL
SQRE
KLNT
KAKW
QKEN
DITY
SWCT
NFFP
KHAC
ILNR
SSID
FYRK
TPFE
HYSF
LAWK
GNVR
VPIA
FSEV
GNPW
YLVA
CTIV
NRHN
KTAK
EHSG
DCMC
PNMS
KITR
PINT
TKKG
VIPF
SRQK
PNEV
LDKR
WLSV
KFRR
AVFV

one-hybrid fitness for binding NBS DNA, 0.238:
RSWS

one-hybrid fitness for binding NBS DNA, 0.21:
QCAY

one-hybrid fitness for binding NBS DNA, 0.24:
IRLR

one-hybrid fitness for binding NBS DNA, 0.232:
QTMY

one-hybrid fitness for binding NBS DNA, 0.526:
QCQT

one-hybrid fitness for binding NBS DNA, 0.441:
CGAR
